# Experimental data: PubChem BioAssay AID2675 (National Center for Advancing Translational Sciences (NCATS), 2010)
# Screen size: about 280,000 compounds; about 100 (0.036%) were called active. The shares of active, inactive and inconclusive entries below differ from those in the screen. The call rests on the fitted dose curve; in most records, active means well fitted inhibition curve with a large enough effect in the signal ratio, with a control signal flat (not every such curve was filed as active); inconclusive means small, poorly fitted or top-dose-only effect, or effect the other way, or a change in a side signal; inactive means no such curve, though single readings can be large or run the other way; the % refers to the signal ratio. A potency beside an inconclusive call is a rough fit, not a confirmed value. “Side channel” marks fits to a control or component signal instead of the main read-out.
# Biological target: Muscleblind-like protein 1 (Homo sapiens) (UniProt Q9NR56)
# Experiment: qHTS Assay for Inhibitors of MBNL1-poly(CUG) RNA binding
# Details: TR-FRET MBNL1-His/biotin-(CUG)12 binding, 665/545 ratio; series mostly up to 57.5 µM
# In short: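 MBNL1-His + Biotin-(CUG)12, cpd titration 92 nM–58 uM; Tb anti-His Ab 0.055 ng/ul, SA-XL665 5 nM (final); 60 min RT; ratiometric 665/545 nm, Ex 340 nm; normalized to buffer and full-complex controls.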
# Potency means the concentration at half of the fitted maximal effect; tags describe the fitted curve by direction and shape or compound fluorescence and quenching.
# Sequence of UniProt Q9NR56 (Q9NR56 whole entry, looked up): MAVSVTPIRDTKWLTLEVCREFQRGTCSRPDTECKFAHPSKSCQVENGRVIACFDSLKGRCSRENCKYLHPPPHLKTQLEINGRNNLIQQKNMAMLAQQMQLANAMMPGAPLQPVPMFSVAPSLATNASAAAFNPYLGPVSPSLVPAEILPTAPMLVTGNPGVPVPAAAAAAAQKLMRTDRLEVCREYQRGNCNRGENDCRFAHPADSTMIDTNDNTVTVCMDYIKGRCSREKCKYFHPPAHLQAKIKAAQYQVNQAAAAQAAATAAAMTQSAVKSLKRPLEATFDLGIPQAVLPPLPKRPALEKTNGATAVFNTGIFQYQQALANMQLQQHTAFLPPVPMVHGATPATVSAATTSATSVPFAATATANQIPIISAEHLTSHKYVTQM
row,Structure (SMILES),Potency
1,O=C(OCC(O)COc1ccccc1)c1ccc([N+](=O)[O-])cc1 (stereo unspecified),"inconclusive: 15.8 µM [quencher, side channel, partial curve]"
2,O=C(c1ccccc1)[C@@H]1[C@@H](C(=O)c2ccc(F)cc2)[C@@]2(C(=O)Nc3ccccc32)[C@H]2c3ccccc3C=CN12,"inconclusive: 79.4 µM [inhibitor, single point]"
3,O=[N+]([O-])c1cc2c(c(CSc3nnnn3-c3ccc(O)cc3)c1)OCOC2,"inconclusive: 39.8 µM [quencher, single point]"
4,O=C(N/N=C/c1cc(Br)ccc1O)c1ccncc1,"inconclusive: 17.8 µM [quencher, side channel, single point]"
5,COC(=O)CCC(=O)OC1(C)C(=O)C=C2C=C(C3CC3)N(Cc3ccccc3)C=C2C1=O (stereo unspecified),"inconclusive: 22.4 µM [quencher, side channel, partial curve]"
6,O=C(C[n+]1ccccc1)Nc1c(Cl)cc(Cl)cc1Cl,"inconclusive: 28.2 µM [quencher, side channel, single point]"
7,COc1ccc(/C(O)=C2\C(=O)C(=O)N(c3cc(C)on3)C2c2ccc(OC)c(OC)c2)cc1OC (stereo unspecified),"inconclusive: 20 µM [quencher, side channel, single point]"
8,CC1=Nc2ncnn2C(c2ccccc2)/C1=N\O (stereo unspecified),"inconclusive: 20 µM [quencher, single point]"
9,O=S(=O)(Nc1ccc2c(c1)OCCO2)c1cccc2nsnc12,"inconclusive: 14.1 µM [quencher, side channel, partial curve]"
10,NS(=O)(=O)c1ccc(NNC(=O)c2ccccc2C(=O)O)cc1,"inconclusive: 20 µM [quencher, side channel, single point]"
11,O=C(NC(=O)N1CCN(c2ccccc2)CC1)c1ccc(Cl)cc1,"inconclusive: 6.31 µM [quencher, side channel, single point]"
12,COc1ccc(C2NC(=O)NC(C)=C2[N+](=O)[O-])cc1 (stereo unspecified),"inconclusive: 25.1 µM [quencher, side channel, partial curve]"
13,Cc1cc(C(=O)OCC(=O)NCCCN2CCCC2=O)c2ccccc2n1,"inconclusive: 17.8 µM [quencher, side channel, single point]"
14,CC(C)c1ccc[n+](-c2nc([O-])sc2C=O)c1,"inconclusive: 22.4 µM [quencher, side channel, single point]"
15,COCc1nnc(NC(=O)C2CCN(C(=O)c3ccco3)CC2)s1,inactive
16,CCNC(=O)c1ccc2c(c1)S(=O)(=O)c1ccccc1C2=O,"inconclusive: 12.6 µM [quencher, side channel, partial curve]"
